{"source": "the BET-seq Pho4 binding data (Le et al. 2018)", "note": "This is one part of the list. Values were computed here from the reads of four pooled replicates and scatter widely."}
{"target": "T1, Pho4 (S. cerevisiae) (UniProt P07270)", "T1 sequence": "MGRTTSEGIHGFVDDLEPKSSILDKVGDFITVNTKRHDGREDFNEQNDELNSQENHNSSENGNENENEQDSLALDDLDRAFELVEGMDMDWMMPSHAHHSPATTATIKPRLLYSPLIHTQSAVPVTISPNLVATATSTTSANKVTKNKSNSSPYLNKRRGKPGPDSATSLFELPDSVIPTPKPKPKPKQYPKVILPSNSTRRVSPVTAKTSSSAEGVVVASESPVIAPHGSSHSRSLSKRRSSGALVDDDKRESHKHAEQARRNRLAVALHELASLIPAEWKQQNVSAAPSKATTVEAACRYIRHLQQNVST", "assay": "relative binding free energy (BET-seq); higher = weaker binding", "details": "reference: library average", "units": {"relative binding free energy": "kcal/mol"}}
{"sequence": "GGATGCACGTGGATAG", "relative binding free energy": -0.17}
{"sequence": "GGCCTCACGTGTGTGT", "relative binding free energy": 0.24}
{"sequence": "AGCTGCACGTGGTTGG", "relative binding free energy": -0.13}
{"sequence": "ATGGCCACGTGGGAGG", "relative binding free energy": -0.16}
{"sequence": "TGCTGCACGTGAGTGT", "relative binding free energy": 0.22}
{"sequence": "GTGGGCACGTGGCTGA", "relative binding free energy": -0.12}
{"sequence": "TTACACACGTGTTTGT", "relative binding free energy": 0.02}
{"sequence": "GAGTGCACGTGTTAAT", "relative binding free energy": -0.01}
{"sequence": "CGGTGCACGTGTGATT", "relative binding free energy": 0.08}
{"sequence": "TTAAGCACGTGTCTTG", "relative binding free energy": -0.15}
{"sequence": "GCTGGCACGTGCTGGG", "relative binding free energy": -0.11}
{"sequence": "AGCGTCACGTGTGGGG", "relative binding free energy": 0.09}
{"sequence": "AGTCTCACGTGTGTCG", "relative binding free energy": 0.25}
{"sequence": "TGTTGCACGTGGCGTT", "relative binding free energy": -0.08}
{"sequence": "AAGTTCACGTGGCGTG", "relative binding free energy": 0.27}
{"sequence": "AGGTGCACGTGTCGGT", "relative binding free energy": -0.06}
{"sequence": "TAAAGCACGTGCTGGG", "relative binding free energy": -0.08}
{"sequence": "TTGCGCACGTGTTAGA", "relative binding free energy": -0.07}
{"sequence": "TGGGACACGTGTGTAA", "relative binding free energy": 0.13}
{"sequence": "CGGGACACGTGGGACT", "relative binding free energy": 0.07}
{"sequence": "AGGTGCACGTGGACAT", "relative binding free energy": -0.15}
{"sequence": "TTGGGCACGTGTTTTA", "relative binding free energy": 0.03}
{"sequence": "GGCTTCACGTGGGTGG", "relative binding free energy": 0.19}
{"sequence": "ATTGTCACGTGATATG", "relative binding free energy": 0.19}
{"sequence": "TTTCGCACGTGCTTTT", "relative binding free energy": -0.14}
{"sequence": "GGGCACACGTGGGAAT", "relative binding free energy": 0.12}
{"sequence": "TGTGGCACGTGGACTG", "relative binding free energy": -0.29}
{"sequence": "TAGGGCACGTGAAATG", "relative binding free energy": 0.11}
{"sequence": "TGGTGCACGTGGATAG", "relative binding free energy": 0.05}
{"sequence": "GTGAGCACGTGAATAG", "relative binding free energy": 0.21}
{"sequence": "TCTAGCACGTGAGGGA", "relative binding free energy": 0.23}
{"sequence": "TTCTGCACGTGTTGCG", "relative binding free energy": -0.03}
{"sequence": "TGTTTCACGTGATGGC", "relative binding free energy": 0.47}
{"sequence": "TGTGGCACGTGTGGCC", "relative binding free energy": -0.08}
{"sequence": "GTGATCACGTGGTCGC", "relative binding free energy": 0.17}
{"sequence": "AAGATCACGTGTCTTG", "relative binding free energy": 0.26}
{"sequence": "TTTTGCACGTGTGCCG", "relative binding free energy": 0.14}
{"sequence": "GTACACACGTGGTGTA", "relative binding free energy": 0.05}
{"sequence": "GGTGGCACGTGCAGTT", "relative binding free energy": -0.12}
{"sequence": "TTGTTCACGTGTGGGC", "relative binding free energy": 0.36}
{"sequence": "TGTTTCACGTGCGCGT", "relative binding free energy": 0.15}
{"sequence": "GATGTCACGTGGTTAT", "relative binding free energy": 0.05}
{"sequence": "TGAGACACGTGAGTTA", "relative binding free energy": 0.28}
{"sequence": "GGAGTCACGTGATCTG", "relative binding free energy": 0.27}
{"sequence": "AGTAGCACGTGTCATG", "relative binding free energy": 0.05}
{"sequence": "AGTGGCACGTGCTGCT", "relative binding free energy": -0.21}
{"sequence": "AATAGCACGTGGTGGA", "relative binding free energy": -0.23}
{"sequence": "TGGGACACGTGAAAGA", "relative binding free energy": 0.54}
{"sequence": "ACGATCACGTGGGTAT", "relative binding free energy": 0.1}
{"sequence": "ATGTTCACGTGGTTTT", "relative binding free energy": 0.29}
{"sequence": "ATTGTCACGTGTGAAG", "relative binding free energy": 0.14}
{"sequence": "TGGGACACGTGGTTAA", "relative binding free energy": -0.04}
{"sequence": "TGATTCACGTGACGAG", "relative binding free energy": 0.51}
{"sequence": "GGGCCCACGTGGGTTG", "relative binding free energy": -0.24}
{"sequence": "TATGACACGTGCTGGG", "relative binding free energy": -0.05}
{"sequence": "TATCGCACGTGTAGGT", "relative binding free energy": -0.05}
{"sequence": "GTTATCACGTGGTTTA", "relative binding free energy": 0.15}
{"sequence": "GGTTACACGTGGGCTA", "relative binding free energy": 0.12}
{"sequence": "GTGTTCACGTGTTGAC", "relative binding free energy": 0.29}
{"sequence": "AGAATCACGTGGGGCA", "relative binding free energy": 0.02}
{"sequence": "GTTGTCACGTGGACAG", "relative binding free energy": 0.08}
{"sequence": "CTAAGCACGTGTAGTG", "relative binding free energy": -0.09}
{"sequence": "TATGGCACGTGTTGTA", "relative binding free energy": -0.16}
{"sequence": "TGTAGCACGTGGTCTG", "relative binding free energy": -0.24}
{"sequence": "GGTAACACGTGCGGAT", "relative binding free energy": 0.16}
{"sequence": "GCGTTCACGTGGTGAG", "relative binding free energy": 0.26}
{"sequence": "AAGGTCACGTGCATTG", "relative binding free energy": 0.13}
{"sequence": "TTTATCACGTGAGTTG", "relative binding free energy": 0.41}
{"sequence": "GAATTCACGTGAGTAA", "relative binding free energy": 0.73}
{"sequence": "TATGGCACGTGAGTCA", "relative binding free energy": 0.12}
{"sequence": "ATTTACACGTGCAGGG", "relative binding free energy": 0.13}
{"sequence": "AGTAGCACGTGTGTGT", "relative binding free energy": -0.08}
{"sequence": "AGGGGCACGTGGGCAG", "relative binding free energy": -0.19}
{"sequence": "TGGGACACGTGGAGTC", "relative binding free energy": 0.07}
{"sequence": "GAGATCACGTGAGTTT", "relative binding free energy": 0.42}
{"sequence": "TGGAGCACGTGGGGCA", "relative binding free energy": -0.27}
{"sequence": "GCTTGCACGTGAGGTA", "relative binding free energy": 0.16}
{"sequence": "TACTTCACGTGTTCGT", "relative binding free energy": 0.3}
{"sequence": "GGTATCACGTGATATT", "relative binding free energy": 0.13}
{"sequence": "AGTGACACGTGTTGGT", "relative binding free energy": 0.04}
{"sequence": "TTCTGCACGTGCGGTT", "relative binding free energy": -0.04}
{"sequence": "TTGGACACGTGTTTCG", "relative binding free energy": -0.15}
{"sequence": "TTTAACACGTGGGAGG", "relative binding free energy": -0.06}
{"sequence": "TAGTGCACGTGTTACT", "relative binding free energy": 0.01}
{"sequence": "TGTTACACGTGTGGAC", "relative binding free energy": 0.17}
{"sequence": "TCAGACACGTGGGCGG", "relative binding free energy": -0.13}
{"sequence": "TAGGGCACGTGAGGCG", "relative binding free energy": 0.07}
{"sequence": "TGAATCACGTGGGGTG", "relative binding free energy": 0.07}
{"sequence": "CTGTGCACGTGGTTCT", "relative binding free energy": -0.09}
{"sequence": "GTGGTCACGTGGAGTC", "relative binding free energy": 0.1}
{"sequence": "CGTAACACGTGATGGT", "relative binding free energy": 0.03}
{"sequence": "CGAGTCACGTGGGCGG", "relative binding free energy": -0.17}
{"sequence": "TGGTTCACGTGGTATC", "relative binding free energy": 0.23}
{"sequence": "TATAGCACGTGTTTGT", "relative binding free energy": -0.19}
{"sequence": "TTAGGCACGTGGGAGG", "relative binding free energy": -0.14}
{"sequence": "GATTACACGTGAGTAG", "relative binding free energy": 0.47}
{"sequence": "TTTGCCACGTGGGAAT", "relative binding free energy": -0.19}
{"sequence": "TTTAGCACGTGGGGTG", "relative binding free energy": -0.26}
{"sequence": "TATTGCACGTGCCGGG", "relative binding free energy": -0.13}
{"sequence": "TACTGCACGTGGGTAT", "relative binding free energy": -0.1}
{"sequence": "ACAAACACGTGGGGGG", "relative binding free energy": -0.05}
{"sequence": "GTGGGCACGTGTACAA", "relative binding free energy": 0}
{"sequence": "TGCGGCACGTGTTTAG", "relative binding free energy": -0.07}
{"sequence": "CGCATCACGTGTGTGT", "relative binding free energy": 0.22}
{"sequence": "TAGGTCACGTGCGTTC", "relative binding free energy": 0.11}
{"sequence": "TCGGACACGTGGGTAG", "relative binding free energy": -0.17}
{"sequence": "CTTGACACGTGAGGTA", "relative binding free energy": 0.36}
{"sequence": "CGATGCACGTGGGTTA", "relative binding free energy": -0.12}
{"sequence": "TTAGGCACGTGGATTT", "relative binding free energy": -0.04}
{"sequence": "GTTATCACGTGTAATT", "relative binding free energy": 0.06}
{"sequence": "GTCGTCACGTGGGCTG", "relative binding free energy": -0.06}
{"sequence": "CAGTGCACGTGTGATG", "relative binding free energy": 0.07}
{"sequence": "GGCAGCACGTGGAGGT", "relative binding free energy": -0.17}
{"sequence": "GGTTACACGTGGAGTA", "relative binding free energy": 0.17}
{"sequence": "ATTACCACGTGTTGTG", "relative binding free energy": -0.19}
{"sequence": "ATGTCCACGTGTGTGA", "relative binding free energy": 0.01}
{"sequence": "GTTCTCACGTGTGAAT", "relative binding free energy": 0.33}
{"sequence": "AATGTCACGTGTGTAG", "relative binding free energy": 0.13}
{"sequence": "TATAACACGTGTTATG", "relative binding free energy": 0.02}
{"sequence": "GTAAGCACGTGCGGGT", "relative binding free energy": -0.17}
{"sequence": "TATGTCACGTGAGTCT", "relative binding free energy": 0.24}
{"sequence": "TTTGGCACGTGGTTAT", "relative binding free energy": -0.18}
{"sequence": "TGTACCACGTGGGATT", "relative binding free energy": -0.12}
{"sequence": "CGTGTCACGTGCGGTT", "relative binding free energy": 0.03}
{"sequence": "GGTTGCACGTGGGTCC", "relative binding free energy": -0.08}
{"sequence": "GTCGGCACGTGGTGTT", "relative binding free energy": -0.13}
{"sequence": "TTATTCACGTGATTCA", "relative binding free energy": 0.26}
{"sequence": "TTTGGCACGTGATATA", "relative binding free energy": -0.06}
{"sequence": "AGGTGCACGTGGGCCA", "relative binding free energy": -0.23}
{"sequence": "AGGTACACGTGGGAGA", "relative binding free energy": 0.06}
{"sequence": "GACTTCACGTGCGTGG", "relative binding free energy": 0.24}
{"sequence": "GTTCACACGTGTGATT", "relative binding free energy": 0.22}
{"sequence": "GTGGGCACGTGAGGAT", "relative binding free energy": 0.2}
{"sequence": "ATGAACACGTGCGGGT", "relative binding free energy": -0.05}
{"sequence": "TATGCCACGTGTTGTA", "relative binding free energy": 0}
{"sequence": "TTGGGCACGTGCCTTG", "relative binding free energy": -0.1}
{"sequence": "AGCTGCACGTGGGGAA", "relative binding free energy": -0.1}
{"sequence": "TTGTGCACGTGTCGAA", "relative binding free energy": 0.09}
{"sequence": "GTTGACACGTGCGGCT", "relative binding free energy": -0.05}
{"sequence": "TTGAACACGTGGGGTA", "relative binding free energy": 0.03}
{"sequence": "CCTGTCACGTGGTAGT", "relative binding free energy": 0.08}
{"sequence": "TTTTTCACGTGTGGCT", "relative binding free energy": 0.37}
{"sequence": "TTGGGCACGTGTCTTT", "relative binding free energy": -0.06}
{"sequence": "GCAACCACGTGGGGGT", "relative binding free energy": -0.11}
{"sequence": "AATTACACGTGATTGT", "relative binding free energy": 0.25}
{"sequence": "TTTTGCACGTGTTGAC", "relative binding free energy": -0.02}
